Data from the supplement of paper PMC9174493.
Structures can show the parent of a compound that is named as a salt. Some of the results follow. Single values of this set are uncertain. Values with irradiation are relative to irradiated vehicle.

Tests used:
[1] = tested on: A549-Dual; assay: NF-kB reporter (SEAP) activity, viability-corrected, relative to vehicle (fold change vs vehicle); higher = more activation of STING-IRF / NF-kB immune response reporter; details: 10 µM
[2] = tested on: A549-Dual; assay: ISRE reporter (Lucia luciferase) activity, viability-corrected, relative to vehicle (fold change vs vehicle); higher = more activation of STING-IRF / NF-kB immune response reporter; details: 10 µM
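Throughout, for NF-kB reporter (SEAP) activity, viability-corrected, relative to vehicle: viability correction based on the alamar blue assay, with concentrations leaving 10% survival or less dropped.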

| SMILES | NF-kB reporter ([1]; irradiation: 8 Gy/4 fr) | NF-kB reporter ([1]; irradiation: none) | ISRE reporter ([2]; irradiation: 8 Gy/4 fr) | ISRE reporter ([2]; irradiation: none) |
| --- | --- | --- | --- | --- |
| CCCCCN(C)CCC(O)(P(=O)(O)O)P(=O)(O)O.O.[NaH] [Ibandronate sodium] | 0.905 | 0.947 | 0.907 | 0.963 |
| CC1CCC2(OC1)OC1CC3C4CC=C5CC(O)CC(O)C5(C)C4CCC3(C)C1C2C (centres undefined) [Ruscogenin] | 0.907 | 0.913 | 0.972 | 0.8 |
| CC(=O)OCC[N+](C)(C)C.[Cl-] [Acetylcholine Chloride] | 1.02 | 1.03 | 0.908 | 0.632 |
| Nc1c2c(nc3ccccc13)CCCC2 [Tacrine hydrochloride hydrate] | 0.825 | 1.01 | 0.632 | 0.497 |
| Cc1ncc(CO)c(CO)c1O.O=C1CCC(C(=O)O)N1 [Metadoxine] | 0.539 | 1.12 | 0.521 | 0.626 |
| CCCCCCCC(=O)O [Octanoic acid] | 1.09 | 0.675 | 1.05 | 0.474 |
| CCOC(=O)C(CCc1ccccc1)NC(C)C(=O)N1Cc2cc(OC)c(OC)cc2CC1C(=O)O.Cl (centres undefined) [Moexipril HCl] | 0.88 | 1.01 | 0.95 | 0.849 |
| Oc1ccc(C2COc3cc(O)ccc3C2)cc1 (racemic) [(±)-Equol] | 0.619 | 0.886 | 0.536 | 0.717 |
| CC1=C(C(=O)O)N2C(=O)C(NC(=O)C(N)C3=CCC=CC3)C2SC1 (centres undefined) [Cefradine] | 0.92 | 0.847 | 1.03 | 1.14 |
| COc1ccc2c(c1)c(CC(=O)[O][Na])c(C)n2C(=O)c1ccc(Cl)cc1.O.O.O [Indometacin Sodium] | 0.89 | 0.779 | 0.604 | 0.573 |
| Oc1cc(O)c2c(c1)OC(c1ccc(O)c(O)c1)C(O)C2 (single isomer, unassigned; (-)) [(-)Epicatechin] | 1.41 | 0.929 | 1.26 | 0.652 |
| CCOC(=O)C(CCc1ccccc1)NC1CSC(c2cccs2)CN(CC(=O)O)C1=O.Cl (centres undefined) [Temocapril HCl] | 0.602 | 1.07 | 0.683 | 1.04 |
| Cl.O=C1CC2(CCCC2)CC(=O)N1CCCCN1CCN(c2ncccn2)CC1 [Buspirone HCl] | 1 | 1.07 | 0.889 | 0.833 |
| C#CCN(C)Cc1ccccc1.Cl [Pargyline hydrochloride] | 0.765 | 1.15 | 0.623 | 0.529 |
| CN(CCOc1ccc(CC2SC(=O)NC2=O)cc1)c1ccccn1.O=C(O)/C=C\C(=O)O (centres undefined) [Rosiglitazone maleate] | 0.754 | 0.943 | 0.621 | 0.87 |
| Oc1cc(O)c2c(c1)OC(c1ccc(O)c(O)c1)C(O)C2 (single isomer, unassigned; (+)) [(+)-Catechin] | 1.06 | 0.763 | 0.949 | 0.525 |
| CNC1C(O)C(OC2C(NC(=O)C(O)CN)CC(N)C(OC3OC(CN)C(O)C(O)C3O)C2O)OCC1(C)O.O=S(=O)(O)O (centres undefined) [Isepamicin Sulphate] | 1.02 | 0.917 | 0.906 | 1.04 |
| FC(F)F.N=C(N)NCCCC1NC(=O)C(CCCCN)NC(=O)C(Cc2ccc(O)cc2)NC(=O)C(CC(=O)O)NC(=O)CNC1=O.O=C(O)C(F)(F)F.O=CO (centres undefined) [Cyclo(RGDyK)] | 1.11 | 0.738 | 1.24 | 0.838 |
| CC(C(O)c1ccc(O)cc1)N1CCC(Cc2ccccc2)CC1.CC(C(O)c1ccc(O)cc1)N1CCC(Cc2ccccc2)CC1.O=C(O)C(O)C(O)C(=O)O (centres undefined) [Ifenprodil Tartrate] | 0.655 | 0.776 | 0.779 | 0.961 |
| O=c1ncnc2[nH][nH]cc1-2 [Allopurinol] | 0.859 | 0.668 | 0.766 | 0.694 |
| C#CC1(O)CCC2C3CCC4=CC(=O)CCC4C3CCC21C (centres undefined) [Norethindrone] | 0.814 | 1.1 | 0.826 | 0.997 |
| CCC(C)C1OC2(CCC1C)CC1CC(C/C=C(\C)C(OC3CC(OC)C(OC4CC(OC)C(O)C(C)O4)C(C)O3)C(C)/C=C/C=C3\COC4C(O)C(C)=CC(C(=O)O1)C34O)O2 (centres undefined) [Ivermectin] | 1.14 | 3.29 | 1.62 | 4.36 |
| CC(C)(C)NCC(O)COc1cccc2c1CC(O)C(O)C2 (centres undefined) [Nadolol] | 0.716 | 0.804 | 0.802 | 0.683 |
| CC(=O)OCC1=C(C(=O)O)N2C(=O)C(NC(=O)CSC(=NC(C)C)NC(C)C)C2SC1 (centres undefined) [Cefathiamidine] | 0.734 | 0.805 | 0.863 | 0.732 |
| CC(=O)N1CCN(c2ccc(OCC3COC(Cn4ccnc4)(c4ccc(Cl)cc4Cl)O3)cc2)CC1 (centres undefined) [Ketoconazole] | 0.778 | 0.814 | 0.699 | 0.727 |
| CNC1C(O)C(OC2C(N)CC(N)C(OC3OC(CN)=CCC3N)C2O)OCC1(C)O.CNC1C(O)C(OC2C(N)CC(N)C(OC3OC(CN)=CCC3N)C2O)OCC1(C)O.O=S(=O)(O)O.O=S(=O)(O)O.O=S(=O)(O)O.O=S(=O)(O)O.O=S(=O)(O)O (centres undefined) [Sisomicin sulfate] | 0.827 | 0.843 | 0.896 | 0.884 |
